# Laboratory results as given in PMC1282572, “Avidin related protein 2 shows unique structural and functional features among the avidin protein family” (BMC Biotechnology, 2005).
# B1: Avidin mutant K111I, produced in insect cells (natural protein, chicken, UniProt P02701 25-152, looked up)
# chain: ARKCSLTGKWTNDLGSNMTIGAVNSRGEFTGTYITAVTATSNEIKESPLHGTQNTINKRTQPTFGFTVNWKFSESTTVFTGQCFIDRNGKEVLKTMWLLRSSVNDIGDDWIATRVGINIFTRLRTQKE
# notes: avidin, chicken, with K111I; An E. coli form, AVD(K111I)-b, was also made; also called AVD(K111I)
# Target: the molecule itself
# Assay: SEC; FPLC gel filtration, Superdex HR 10/30 column, 50 mM NaCO3 (pH 11.0), 150 mM NaCl; calibrated with IgG, BSA and ovalbumin; oligomeric state (tetramer)
protein,measurement,value
B1,stoichiometry N,4
